# According to the supplement of paper PMC11417369:
# The other results are listed elsewhere or left out.
# Tested on: PfHDP1 homeodomain (GST-tagged)
# Assay: gcPBM binding intensity (ln(normalized median fluorescence intensity)); higher = stronger DNA binding
# How it was run: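 The highest Masliner-normalised natural-log median intensity across replicate spots of either probe orientation is reported as binding intensity. GST-tagged P. falciparum DNA-binding domains expressed in E. coli were applied for 1 h to an Agilent 4 × 180k array of primer-extended double-stranded 36-bp intergenic genomic probes plus negative controls, and bound protein was detected with Alexa488 anti-GST antibody and scanned at 488 nm.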
row,Sequence,gcPBM binding intensity (ln)
1,TATTTATAAACATACGCACACATTAATATATATATA [CACACA_site9314],8.5
2,GAAGAAGTTTAAAAAGCACACAAAAAAAAAAAAAAA [CACACA_site9088],6.29
3,CACAAAATAAATTAAACACACAACATCATATATGTA [CACACA_site846],6.57
4,CTTGTAGATATAAAATGTACAAAAATAAATTGCACA [XGTACX_site4409],8.36
5,AGATATTCTACTATGTGTACATATATATATATAATT [XGTACX_site5060],6.82
6,TTTTTCTTTCTATTTATCAATATTAAAAAAAAAAAA [CACACA_negctrl_site1629],6.15
7,TTTTTATAATGATACATATATTATTTTATTCTTAAT [CACACA_negctrl_site124],6.18
8,TATACATGTATATATTGTACATATGTTTTTTTTACA [XGTACX_site3300],6.85
9,TTTTTTCAAATTTTCTTTTTTCTTTTGTTTTTTTTG [CACACA_negctrl_site380],5.84
10,TTACTCATGAAAGATACACACATTCGTTATTTATAT [CACACA_site7517],6.44
11,AATGGATATTTCTTTATATATATCTTATTTGATTAT [XGTACX_negctrl_site284],5.92
12,TTTCTATTCCATTCAACACACAAAAATGTATGCTTT [CACACA_site1072],6.73
13,TATAAACGTATAATATGTACACACACATATATACAA [XGTACX_site1686],6.52
14,ATTATATAGAATTGTACATGCGAATTGTATAACGAT [TGCATGCA_site125],7.33
15,TATTTTTTTTTTTTTTTTTTTTTTATATATACATAT [CACACA_negctrl_site23],6.1
16,AAAAAAAAAAAAAAAAATATATTTATGAAATAAAAA [TGCATGCA_negctrl_site262],6.47
17,AAAAAAAATTTTATCTGTACACATTTTTTTCTTTTT [XGTACX_site4229],6.31
18,ATATAATTTATGTGCACACACTCCTATTTTTAGCTT [CACACA_site50],11.3
19,AAAAAGTAAAAGAAAGCACACACACCGGTATATATG [CACACA_site9281],6.47
20,ATAACAAAAATCCTTGTGCACTATTTTAATAGAGTC,10.5
21,GTAGTCCAAAAAAAGCGTACACAGAAAAAAAAAAAA [XGTACX_site4273],6.08
22,ACATTGCACCCGTGCACACATAGAAAAATAATTCTT [CACACA_site409],10.3

row,Sequence,gcPBM binding intensity (ln)
1,TACATCTTACTACTTATAATATAATATAGTATGAAT [TGCATGCA_negctrl_site8],6.24
2,CATTATGATTAAATATGTACATATTATTATATAAAT [XGTACX_site2477],6.47
3,TACAATATATTTATAGTGCATATTACTTTTAACTTT,8.29
4,TCGTAATAATATAAATGTACTTTATTAATTAAAAGA [XGTACX_site3416],6.2
5,AACGGGTAATGCACAAAAAAAAAAAAATAAAATAAA [TGCATGCA_negctrl_site474],10.9
6,AAATTATTTTGTTATCATTATATATAGATTGAATAT [XGTACX_negctrl_site165],6.53
7,TTCTTTTAAATTAGCTGTACGGTTTTCTACATGCAT [XGTACX_site356],6.93
8,ATGTAATTCTTTTACTTTTTTTTTTTTTTTTTTTTT [CACACA_negctrl_site979],6.8
9,TTATCATATGTATGCATACACACAAAAAATTATATA [CACACA_site397],6.83
10,CAAACAAATATATGTTGTACTTATTATATATACATA [XGTACX_site2998],6.4
11,ATAAATGAGCCATATTAAATCCGTTACACGGGTGTG [CACACA_negctrl_site1368],5.89
12,AACAAAATAAGACACACACACAAATGTACCTATATA [CACACA_site7189],6.75
13,TCTTTTTTAAATAAAAGTACAAAAAAAAATAAAAAA [XGTACX_site2670],6.63
14,AAAAAAAATATGAAAACACACATATATAAATAAATA [CACACA_site113],6.44
15,TAATATATATGTATGGCACACACGGATAAATATATA [CACACA_site930],6.77
16,CATGCCTTTAAAAAGGTGCAAACATTTTCACAAACA,8.87
17,AATAATATATATTACTGTACTAATATAAGGGACATC [XGTACX_site3744],7.1
18,TTGTCAAAAATTACACACATAAATGAATAAATAAAT [XGTACX_negctrl_site541],6.28
19,ATTTATGAAAAAAATACATGCATGTCCATATAAATT [TGCATGCA_site505],6.47
20,TTATTTTCTACAAATTGTACATATTTTTTACTACTC [XGTACX_site1394],6.93
21,CGAATAAATATATGTAGTACATGTTGTAGATAATTT [XGTACX_site1218],6.62
22,TCTTTCTATTAAACATGTACTTGTCTAAAGACATAA [XGTACX_site8564],6.55
